Reference: the supplement of paper PMC10369915
The list shows a part of the results. Cut-off read from the data, not from the text of the source: active = 3.2 or more and inactive = the rest. The signal is at background level for most entries.

Columns and labels:
Assay in all cases: enrichment score (SH2-bound / input frequency) (ratio); bacterial display of known human phosphotyrosine sites (pTyr-Var adds point mutants) read by sequencing; higher = stronger binding; tyrosines were phosphorylated by kinases first
Conditions in all cases: peptide library: pTyr-Var
[1] = target: SHP2 C-SH2 domain E139D
[2] = target: SHP2 C-SH2 domain wild-type
[3] = target: SHP2 N-SH2 domain L43F
[4] = target: SHP2 N-SH2 domain T42A
[5] = target: SHP2 N-SH2 domain T52S
[6] = target: SHP2 N-SH2 domain wild-type
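Note: displayed peptides selected on beads carrying the immobilized SH2 domain, with library peptides lacking any tyrosine serving as negative controls.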

Row | Binder | enrichment score [1] | enrichment score [2] | enrichment score [3] | enrichment score [4] | enrichment score [5] | enrichment score [6]
1 | FKNGDYNEVMK [LCT_Y1638] | inactive: 0.647 | inactive: 0.748 | inactive: 0.764 | inactive: 0.794 | inactive: 0.675 | inactive: 0.786
2 | SCRENYSDSEE [LEMD3_Y258] | inactive: 0.415 | inactive: 0.453 | inactive: 0.532 | inactive: 0.522 | inactive: 0.61 | inactive: 0.48
3 | SSFSGYIMMPN [LEF1_Y114_YF] | inactive: 0.815 | inactive: 0.727 | inactive: 0.849 | inactive: 0.896 | inactive: 0.649 | inactive: 0.614
4 | SARVRYLMAEK [LDHB_Y173_F171V] | inactive: 1.82 | inactive: 1.07 | inactive: 1.39 | inactive: 1.23 | inactive: 1.38 | inactive: 1.28
5 | AHLLQYNHQVK [LGALS3_Y221_R224Q] | inactive: 0.912 | inactive: 0.868 | inactive: 0.987 | inactive: 0.854 | inactive: 1.16 | inactive: 0.567
6 | RLPINYTTRRI [LAMA2_Y2894_G2889R] | inactive: 0.176 | inactive: 0.216 | inactive: 0.16 | inactive: 0.202 | inactive: 0.206 | inactive: 0.285
7 | LPKDLYLISQM [LARP4_Y141_S137P] | inactive: 1.6 | inactive: 1.79 | inactive: 2.03 | inactive: 1.71 | inactive: 1.72 | inactive: 1.02
8 | IRSGIYYKPES [L2HGDH_Y102_H98R] | inactive: 0.903 | inactive: 0.702 | inactive: 1.06 | inactive: 0.81 | inactive: 0.885 | inactive: 0.851
9 | LKRIAYFLCLL [LGI1_Y21] | active: 4.66 | active: 5.05 | active: 4.3 | active: 4.1 | active: 5.92 | active: 4.5
10 | LKYAIYFEVRE [LAMA2_Y1258_A1261V] | inactive: 2.29 | inactive: 2.06 | inactive: 2.46 | inactive: 2.13 | inactive: 1.56 | inactive: 2.12
11 | NPIGLYSAETL [LDB3_Y202] | inactive: 0.803 | inactive: 0.915 | inactive: 0.811 | inactive: 0.694 | inactive: 0.746 | inactive: 0.814
12 | YIATQYSLCPR [LBR_Y166_R169C] | inactive: 0.523 | inactive: 0.662 | inactive: 0.676 | inactive: 0.643 | inactive: 0.545 | inactive: 0.754
13 | SARFRYLLAEK [LDHB_Y173_M175L] | inactive: 0.511 | inactive: 0.574 | inactive: 0.487 | inactive: 0.524 | inactive: 0.772 | inactive: 0.499
14 | FSGIFYKPESL [L2HGDH_Y103_H98Y_YF] | inactive: 1.98 | inactive: 1.54 | inactive: 1.76 | inactive: 1.95 | inactive: 1.88 | inactive: 1.67
15 | FDNSVYQKTTE [LDLR_Y828_P826S] | inactive: 0.649 | inactive: 0.575 | inactive: 0.596 | inactive: 0.529 | inactive: 0.547 | inactive: 0.736
16 | HNQDGYSFLSR [LDLR_Y845_P848L_YF] | inactive: 1.17 | inactive: 1.15 | inactive: 0.649 | inactive: 0.615 | inactive: 0.799 | inactive: 0.754
17 | HNQDDYSYPSR [LDLR_Y845_G844D] | inactive: 0.449 | inactive: 0.449 | inactive: 0.786 | inactive: 0.688 | inactive: 0.517 | inactive: 0.434
18 | FDNPVYQKTTE [LDLR_Y828] | inactive: 0.874 | inactive: 1.09 | inactive: 1.01 | inactive: 0.924 | inactive: 0.782 | inactive: 1.32
19 | LKLKAYRFSIS [LCT_Y974_V971L] | inactive: 0.868 | inactive: 0.587 | inactive: 0.738 | inactive: 0.669 | inactive: 0.936 | inactive: 0.959

Row | Binder | enrichment score [1] | enrichment score [2] | enrichment score [3] | enrichment score [4] | enrichment score [5] | enrichment score [6]
20 | RVILRYVNPGT [LAMA3_Y791] | inactive: 1.41 | inactive: 0.966 | inactive: 1.11 | inactive: 1.26 | inactive: 1.28 | inactive: 1.69
21 | LKFAIYFEVRE [LAMA2_Y1258_A1261V_YF] | inactive: 0.444 | inactive: 0.876 | inactive: 0.536 | inactive: 0.605 | inactive: 0.492 | inactive: 0.793
22 | PQIVKYRPDCI [LDHB_Y128_S129R] | inactive: 1.28 | inactive: 1.7 | inactive: 2.05 | inactive: 1.59 | inactive: 2.31 | inactive: 1.69
23 | YKPGFYNLKEK [LAMA1_Y490_C485Y] | inactive: 1.21 | inactive: 1.35 | inactive: 1.48 | inactive: 1.01 | inactive: 1.18 | inactive: 1.09
24 | RSSPTYRDCLQ [LARGE2_Y682] | inactive: 0.862 | inactive: 0.674 | inactive: 0.658 | inactive: 0.582 | inactive: 0.653 | inactive: 0.652
25 | HNQDGYSFPSR [LDLR_Y845_YF] | inactive: 0.458 | inactive: 0.578 | inactive: 0.495 | inactive: 0.554 | inactive: 0.586 | inactive: 0.607
26 | SSYSRYIMMPN [LEF1_Y114_G113R] | inactive: 0.784 | inactive: 1.28 | inactive: 0.639 | inactive: 0.777 | inactive: 0.605 | inactive: 0.596
27 | FQEKSYIKGTS [LCTL_Y331_L326F] | inactive: 0.862 | inactive: 1.03 | inactive: 0.906 | inactive: 0.742 | inactive: 0.609 | inactive: 1.02
28 | HGVSSYDTVIS [LDLR_Y465] | inactive: 0.757 | inactive: 0.665 | inactive: 0.772 | inactive: 0.71 | inactive: 0.699 | inactive: 0.806
29 | SARFRYLVAEK [LDHB_Y173_M175V] | inactive: 0.722 | inactive: 0.521 | inactive: 0.737 | inactive: 0.663 | inactive: 0.673 | inactive: 0.633
30 | CSSPTYRDCLQ [LARGE2_Y682_R677C] | inactive: 1.87 | inactive: 1.7 | inactive: 1.76 | inactive: 1.54 | inactive: 1.72 | inactive: 1.29
31 | LKVKAYRFSIS [LCT_Y974] | inactive: 0.848 | inactive: 0.827 | inactive: 0.606 | inactive: 0.698 | inactive: 0.623 | inactive: 0.679
32 | YDCGMYSHLQG [LGR4_Y848] | inactive: 1.19 | inactive: 1.56 | inactive: 1.2 | inactive: 1.23 | inactive: 1.24 | inactive: 1.2
33 | ERKQTYGSCRK [LACTB_Y473] | inactive: 1.48 | inactive: 1.24 | inactive: 1.04 | inactive: 1.15 | inactive: 1.23 | inactive: 1.13
34 | IYSGIYYKPES [L2HGDH_Y102_H98Y] | inactive: 1.44 | inactive: 1.29 | inactive: 1.44 | inactive: 1.63 | inactive: 1.75 | inactive: 1.15
35 | RSGIFYKPESL [L2HGDH_Y103_H98R_YF] | inactive: 1.13 | inactive: 1.04 | inactive: 1.88 | inactive: 1.25 | inactive: 1.29 | inactive: 1.37
36 | YIATQYSLRPR [LBR_Y166] | inactive: 0.232 | inactive: 0.284 | inactive: 0.394 | inactive: 0.247 | inactive: 0.265 | inactive: 0.282
37 | SCRENYSFSEE [LEMD3_Y258_D260Y_YF] | inactive: 0.627 | inactive: 0.631 | inactive: 0.554 | inactive: 0.55 | inactive: 0.527 | inactive: 0.604
